Test results from paper PMC4336329 (PLoS ONE, 2015).
In all, about 310,000 compounds went through this assay and about 14,000 (4.5%) showed an effect of 50% or more. Effects have a minus sign here. This is one part of the list.

What follows are compounds tested against human ether-à-go-go-related gene (hERG) potassium channel (human, UniProt Q12809) (assay: primary screen, population patch clamp on CHO cells stably expressing hERG).
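Also: peak tail current of the secondary pulse compared with the same well before compound.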

Chain of human ether-à-go-go-related gene (hERG) potassium channel (Q12809 whole entry, looked up): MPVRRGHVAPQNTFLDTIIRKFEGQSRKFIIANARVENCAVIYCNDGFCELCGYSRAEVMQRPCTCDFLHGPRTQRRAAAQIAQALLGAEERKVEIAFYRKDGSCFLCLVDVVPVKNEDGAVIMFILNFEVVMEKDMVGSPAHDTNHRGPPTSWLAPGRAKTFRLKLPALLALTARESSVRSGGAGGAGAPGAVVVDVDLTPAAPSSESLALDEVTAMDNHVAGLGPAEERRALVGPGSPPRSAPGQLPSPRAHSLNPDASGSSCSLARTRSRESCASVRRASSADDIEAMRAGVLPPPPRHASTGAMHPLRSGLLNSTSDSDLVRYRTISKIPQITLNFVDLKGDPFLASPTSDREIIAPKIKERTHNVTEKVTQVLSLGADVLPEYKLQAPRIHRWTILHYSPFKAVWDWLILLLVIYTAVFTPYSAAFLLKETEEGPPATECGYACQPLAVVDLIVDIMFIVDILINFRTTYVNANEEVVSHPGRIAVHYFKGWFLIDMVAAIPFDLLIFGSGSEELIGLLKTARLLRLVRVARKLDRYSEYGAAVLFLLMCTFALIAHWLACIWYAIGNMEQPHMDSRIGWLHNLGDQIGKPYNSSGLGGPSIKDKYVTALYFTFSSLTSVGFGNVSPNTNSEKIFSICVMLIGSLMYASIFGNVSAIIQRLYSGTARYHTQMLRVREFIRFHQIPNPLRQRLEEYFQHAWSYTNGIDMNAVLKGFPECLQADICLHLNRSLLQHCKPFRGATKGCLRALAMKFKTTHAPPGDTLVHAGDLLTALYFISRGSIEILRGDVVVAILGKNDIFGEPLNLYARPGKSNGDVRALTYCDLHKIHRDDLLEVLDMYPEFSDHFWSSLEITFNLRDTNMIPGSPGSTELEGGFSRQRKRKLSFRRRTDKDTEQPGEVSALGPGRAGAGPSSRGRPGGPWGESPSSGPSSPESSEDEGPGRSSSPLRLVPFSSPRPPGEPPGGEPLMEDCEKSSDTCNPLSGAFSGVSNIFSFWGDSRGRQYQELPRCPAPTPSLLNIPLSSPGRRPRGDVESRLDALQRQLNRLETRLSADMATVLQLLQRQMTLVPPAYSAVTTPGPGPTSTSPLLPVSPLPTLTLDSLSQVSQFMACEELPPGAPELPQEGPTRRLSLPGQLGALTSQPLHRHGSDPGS

SMILES | hERG current change (%, negative = inhibition) at 10uM
CCc1ccc(NC(=O)CCCN2C(=O)C3CC=CCC3C2=O)cc1 (stereo not drawn) | -17.2%
Cc1cc(C)c(S(=O)(=O)Nc2ccc(O)cc2)c(C)c1 | -5.27%
c1csc(-c2noc(COc3ccc4c(c3)CCCC4)n2)c1 | 10.7%
O=C(NCC1CCCO1)c1cc(-c2ccco2)nc2ccccc12 (stereo not drawn) | 11.3%
O=C(CN1CCOCC1)Nc1cc(C(F)(F)F)ccc1Cl | -0.356%
C[C@@H]1C=C[C@](Cc2ccccc2)(C(=O)NCC2CC2)N1C(=O)c1ccccc1 | -2.49%
CCOc1cccc2cc(-c3csc(NC(=O)CCC(=O)NCCN4CCCCC4C)n3)c(=O)oc12 (stereo not drawn) | -34.9%
CCN(CC(=O)NCc1ccc(F)cc1)C(=O)c1ccc(C(=O)c2ccccc2)cc1 | -42.3%
CCOc1ccc(CCNC(=O)C2CCN(C(=O)N(C)C)CC2)cc1OCC | 14.2%
O=C(COC(=O)c1cnccn1)Nc1ccccc1-c1ccccc1 | 17.7%
COc1cc(SC)ccc1C(=O)NC1CCCc2ccccc21 (stereo not drawn) | 9.46%
C1=C(c2ccccc2)Nc2nnnn2C1 | 16.6%
Cc1[nH]n(-c2ccccc2)c(=O)c1C(C[N+](=O)[O-])c1ccc(F)cc1 (stereo not drawn) | 10.4%
COC(=O)C1=C(c2cccc(OCc3ccccc3)c2)C[C@@H]2CC[C@H]1N2C(=O)NCCc1ccc(F)cc1 | -13.4%
O=C(Nc1ccccn1)C1CCN(S(=O)(=O)c2ccc3c(c2)OCCCO3)CC1 | -0.164%
Cc1cccc(NC(=O)NC(C)C(c2ccccc2)N2CCN(C)CC2)c1 (stereo not drawn) | -36.5%
Cc1ccc(C(=O)N/C(=C/c2cccnc2)C(=O)NCc2ccco2)cc1 | -41.7%
CC1COC(=O)C(NNc2ccc(Cl)c(Cl)c2)=N1 (stereo not drawn) | 27.3%
CC(=O)Nc1ccc(Sc2ncnc3scc(-c4ccccc4)c23)cc1 | 2.58%
O=S1(=O)CCN(Cc2cccc(Cl)c2)CC1 | 1.06%
COc1ccccc1N1CCN(Cc2nc3ccccc3c(=O)n2CC(C)=O)CC1 | -9.71%
COc1cccc(NC(=O)Nc2nnc(N3CCCCC3C)s2)c1 (stereo not drawn) | 0.237%

SMILES | hERG current change (%, negative = inhibition) at 10uM
Cc1ccc2c(c1)cc(CN(Cc1ccc3c(c1)OCO3)C(=O)c1cnccn1)c1nnnn12 | -45.7%
Cn1c(=O)[nH]c(=O)c2c1nc(CN1CCOCC1)n2CCCO | 5.76%
Cc1ccn2c(Nc3ccccc3C)c(-c3cccnc3)nc2c1 | -10.3%
CCOC(=O)N1CCN(c2c(NC3CCN(Cc4ccccc4)CC3)c(=O)c2=O)CC1 | 7.18%
CC(C)OC(=O)C1C2c3ccccc3C(c3ccccc32)C1C(=O)O (stereo not drawn) | 15.9%
CC(C)CN(C(=O)COc1ccc2ccc(=O)oc2c1)C1CCS(=O)(=O)C1 (stereo not drawn) | 12%
Cc1ccnc(NS(=O)(=O)c2ccc(NC(=O)C34CC5CC(CC(C5)C3)C4)cc2)n1 | 4.75%
Cc1ccc2c(c1)NC(=O)[C@@]1(C)[C@@H](c3ccccc3)[C@H]3COc4ccccc4[C@@H]3N1C2=O | 12.3%
O=C1C2CCCN2C(c2cccnc2)N1c1ccc(Cl)cc1 (stereo not drawn) | -16.3%
C[C@@H]1CCC2[C@](C)(CO)[C@@H](O)CC[C@]2(C)[C@@]12C[C@](CO)(CC(=O)[O-])CO2.O (stereo partly drawn) | 15.7%
O=C([O-])c1ccc(N(Cc2ccccc2)S(=O)(=O)c2ccccc2)cc1.[Na+] | 4.28%
NC1=C(O)C(=O)C(c2ccccc2)O1 (stereo not drawn) | 21.5%
O=C(Nc1nccs1)C1CCCCN1S(=O)(=O)c1ccccc1 (stereo not drawn) | 4.8%
COc1ccc(-c2nc(C(=O)NCCCN3CCOCC3)cc3c2[nH]c2ccccc23)cc1OC | -72.2%
CC(=O)N1CCc2cc(S(=O)(=O)CCC(=O)N3CCN(C(=O)c4ccco4)CC3)ccc21 | 2.25%
CCOC(=O)c1cnc2c(c(C)nn2CC)c1NC1CC1 | 12.5%
O=C(Nc1nnc(-c2ccco2)s1)C1CCCCC1 | -5.43%
CCOc1ccc(NC(=O)COc2cccc3c2CCN(Cc2cccnc2)C3=O)cc1 | -44.3%
CCCCC1CC(/C(C)=N/NC(N)=O)OC1=O (stereo not drawn) | -6.35%
CC(C)C(NC(=O)c1ccc(C(C)(C)C)cc1)C(=O)Nc1cccc(S(N)(=O)=O)c1 (stereo not drawn) | 3.85%
Cc1[nH]c2ccc3ncccc3c2c1C | 12.7%
C=CCNC(=S)Nc1cccc2ccccc12 | 1.64%

SMILES | hERG current change (%, negative = inhibition) at 10uM
Cc1ccc(NC(=O)c2ccc(-n3cccn3)nc2)cc1 | 2.12%
O=C(NC1CCCCCC1)c1cc(=O)[nH]c2ccc(S(=O)(=O)N3CCOCC3)cc12 | 1.12%
CCn1c2c(c3ccc(OC)cc31)CCCC2=O | -1.39%
O=C(NCCCO)C(=O)NCC(c1ccc2c(c1)OCO2)N1CCN(c2ccc(F)cc2)CC1 (stereo not drawn) | -41.4%
CC(N)C(=O)OC(C)(C)Cc1ccc(Cl)cc1.Cl (stereo not drawn) | -4.87%
CCCC(O)(CCC)C(=O)NNc1ccc(C)cc1 | 5.21%
CCOc1ccc(NC(=O)Nc2cc(OCC(F)(F)F)cc(OCC(F)(F)F)c2)cc1 | 16.5%
COc1ccccc1/C=C1\SC(=S)N(CCC(=O)NCCCN2CCOCC2)C1=O | -16.2%
O=C1CSC(c2ccccn2)N1c1ccc(C(F)(F)F)cc1 (stereo not drawn) | -45.1%
Cc1cccc(NC(=O)COC(=O)CCc2c[nH]c3ccccc23)c1 | 4.11%
CCN(C(=N)N=C(N)N)c1ccccc1 | 9.81%
CC(C(N)=O)N1CC(c2ccccc2)CC1=O (stereo not drawn) | -4.86%
CCN(CC(=O)Nc1ccc(NC(C)=O)cc1)C(=O)C1CC(=O)N(Cc2ccc(C)cc2)C1 (stereo not drawn) | 0.107%
CCC(C)n1c(SCC(=O)/C(C#N)=C(\C)N)nc2ccccc2c1=O (stereo not drawn) | -15.3%
O=C(N/N=C/c1ccco1)c1cc(C2CC2)nc2ccccc12 | 4.56%
COc1cc(/C=C2/C(=O)ON=C2C)ccc1OCc1cccc(F)c1 | 28.5%
Cl.c1csc(CNCCN2CCOCC2)c1 | 13.1%
Cc1ccc(C)n1-n1c(C)nc2scc(-c3ccccc3)c2c1=O | -14%
Cc1ccc(NC(=O)C2C3C=CC(O3)C2C(=O)O)cc1C (stereo not drawn) | 20.4%
O=C1CN(c2ccc(Br)cc2)C(=O)N1CC(=O)N1CCCc2ccccc21 | -7.58%
COc1ccccc1-n1cc(-c2ccc(Br)cc2)[nH]c1=S | 15.6%
C/C(CC(=O)Nc1ccc(C)c(Cl)c1)=N\NC(=O)Cc1cccs1 | -4.58%

SMILES | hERG current change (%, negative = inhibition) at 10uM
COc1cc(OC)cc(C(=O)Nc2cccc3c2CCCC3)c1 | 19.3%
Cc1nc(C)c(NC(=O)N2CCc3ccccc32)cc1NC(=O)N1CCc2ccccc21 | 7.5%
COCC(C)n1c(C)cc(C(=O)CSc2nnc(N)s2)c1C (stereo not drawn) | -6.96%
Cc1cccc(NC(=O)CSCC(=O)Nc2cc(S(=O)(=O)N3CCOCC3)ccc2OC(C)C)c1 | -87.2%
Cc1cc(N(C)C)ccc1[N+](=O)[O-] | -9.31%
CCOC(=O)c1ccc(NC(=O)CSc2nc(NC(=O)c3ccccc3)c3c(C)c(C)oc3n2)cc1 | 10.8%
CS(=O)(=O)Nc1ccccc1C(=O)NCc1ccco1 | -2.03%
COc1ccccc1S(=O)(=O)Cc1ccc(C(=O)N2CCOCC2)o1 | 0.199%
COc1ccc(OCC(=O)N/N=C(\C)CC(=O)Nc2cccc([N+](=O)[O-])c2)cc1 | -53.8%
CC(=O)N1N=C(c2ccccc2)OC1(C)CC(=O)Nc1ccccc1 (stereo not drawn) | 8.71%
O=C(Oc1ccc(=O)n(-c2ccccc2)n1)c1ccc(F)cc1 | -26.1%
Cc1ccc(OCCC(=O)Nc2ccc(C)c(S(=O)(=O)N3CCOCC3)c2)cc1 | -12.9%
COCCCN1C(=O)C(=O)/C(=C(/O)c2ccccc2)C1c1ccc(N(C)C)cc1 (stereo not drawn) | 12.8%
O=C(NCc1cccc(CNC(=O)c2ccco2)c1)c1ccco1 | 29.8%
CCN(CC)C(=O)Cn1c(=O)n(CCCCCC(=O)Nc2ccccc2)c(=O)c2sccc21 | -32.3%
CCN(C(=O)CSc1nnc(Cc2ccccc2F)n1N)C1CCS(=O)(=O)C1 (stereo not drawn) | 2.11%
CCOC(=O)C1=C(C)N=c2s/c(=C\c3ccc(OCC(=O)O)cc3)c(=O)n2C1c1ccc(Cl)cc1 (stereo not drawn) | 20.4%
CC(OC(=O)c1cccc(-n2cnnn2)c1)C(=O)N(C)c1ccccc1 (stereo not drawn) | -26.8%
COc1ccc(/C=C/C(=O)N[C@@H](C)C(=O)O)cc1 | 12.2%
COc1ccccc1NC(=O)NC(=O)N(C(C)C)S(C)(=O)=O | 19.2%
CCCc1c(NC(=O)Nc2ccc(F)cc2)cnn1-c1ccc(Cl)cc1 | 7.22%
